Screen size: about 310,000 compounds; about 14,000 (4.5%) showed an effect of 50% or more. The effect is printed as a negative number. Some of the results follow.
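Also: peak tail current of the secondary pulse compared with the same well before compound.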

Chain of human ether-à-go-go-related gene (hERG) potassium channel (Q12809 whole entry, looked up): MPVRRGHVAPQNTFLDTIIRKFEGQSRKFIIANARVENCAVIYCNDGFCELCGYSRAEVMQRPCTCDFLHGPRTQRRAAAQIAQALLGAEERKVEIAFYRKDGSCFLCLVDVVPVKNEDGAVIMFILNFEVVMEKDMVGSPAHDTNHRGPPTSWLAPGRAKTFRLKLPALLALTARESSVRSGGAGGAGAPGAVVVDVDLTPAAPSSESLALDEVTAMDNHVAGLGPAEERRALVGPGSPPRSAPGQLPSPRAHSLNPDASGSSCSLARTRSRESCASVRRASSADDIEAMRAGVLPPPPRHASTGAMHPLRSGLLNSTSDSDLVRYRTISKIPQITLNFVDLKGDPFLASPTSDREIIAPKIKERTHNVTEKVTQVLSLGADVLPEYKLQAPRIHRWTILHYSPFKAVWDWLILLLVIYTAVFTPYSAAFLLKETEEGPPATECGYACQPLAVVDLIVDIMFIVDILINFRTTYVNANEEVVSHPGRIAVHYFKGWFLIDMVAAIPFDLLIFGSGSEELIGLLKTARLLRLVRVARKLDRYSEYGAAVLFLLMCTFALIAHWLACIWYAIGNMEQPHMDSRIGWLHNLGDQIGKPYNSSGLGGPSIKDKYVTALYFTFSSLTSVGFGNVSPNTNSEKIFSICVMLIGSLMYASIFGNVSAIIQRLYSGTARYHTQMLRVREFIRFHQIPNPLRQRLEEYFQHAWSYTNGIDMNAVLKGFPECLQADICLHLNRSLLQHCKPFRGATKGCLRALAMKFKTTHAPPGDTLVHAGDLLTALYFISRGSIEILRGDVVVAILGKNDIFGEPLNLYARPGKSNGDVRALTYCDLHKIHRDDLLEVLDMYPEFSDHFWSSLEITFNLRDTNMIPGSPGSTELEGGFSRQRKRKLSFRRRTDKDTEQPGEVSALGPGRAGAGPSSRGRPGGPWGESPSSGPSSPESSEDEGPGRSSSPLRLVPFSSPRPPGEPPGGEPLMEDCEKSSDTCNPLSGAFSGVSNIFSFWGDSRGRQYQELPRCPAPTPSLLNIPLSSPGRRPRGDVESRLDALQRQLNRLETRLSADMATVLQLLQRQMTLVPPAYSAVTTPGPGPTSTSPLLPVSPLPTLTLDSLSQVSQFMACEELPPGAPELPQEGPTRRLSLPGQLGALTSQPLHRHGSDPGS

This assay concerns the target human ether-à-go-go-related gene (hERG) potassium channel (human, UniProt Q12809). As to the kind of experiment: primary screen, population patch clamp on CHO cells stably expressing hERG.
With `C=C(C)c1cccc(C(C)(C)NC(=O)NCC2COCCO2)c1` (stereo not shown), the “hERG current change (%, negative = inhibition) at 10uM” value worked out at 15%.
The same measure for `O=C(CC1SCCNC1=O)Nc1ccc(Cl)c(Cl)c1` (stereo not shown): -4.35%; for `Cc1ccccc1CN1CCc2cc([N+](=O)[O-])ccc21`: 19.1%; for `O=C(Nc1cccc(C(=O)O)c1)/C(=C\c1ccc(F)cc1)NC(=O)c1ccco1`: 6.5%.
As for `CCOc1ccc(Cc2n[nH]c(=S)n2N)cc1`, the “hERG current change (%, negative = inhibition) at 10uM” value is reported as 21.3%.
In the case of `Cc1ccc(CNC(=O)C2CCN(S(=O)(=O)N3CC(C)CC(C)C3)CC2)cc1` (stereo not shown) it was 15%; in that of `CC(OC(=O)C1CCCC1)C(=O)Nc1ccc(S(N)(=O)=O)cc1` (stereo not shown), 8.98%.
Take `O=[N+]([O-])c1ccc(Nc2ccccc2)c2nonc12`: the “hERG current change (%, negative = inhibition) at 10uM” value was -8.36%.
In the case of `COc1cccc2cc(C(=O)Nc3ccccc3C(=O)N3CCOCC3)oc12` it was -21.3%; in that of `CC1CCCCC1NC(=O)c1ccc(N2CCCC2=O)cc1` (stereo not shown), -3.85%.
The same measure for `Cc1c(S(=O)(=O)N(C)C2CCCCC2)c(=O)n(C)c(=O)n1C`: -3.42%.
In the case of `CCc1ccccc1N(CC(=O)NC1CCCCC1)C(=O)CNC(=O)c1ccco1` it was 2.14%; in that of `Cc1nc2ncnn2c(N2CCN(S(=O)(=O)c3ccc(Br)cc3)CC2)c1C`, -20.7%; in that of `Cc1cccc(-c2nnc(SCC#N)n2-c2cccc(Cl)c2)c1`, -62.5%.
For `O=C(COc1ccc(Cl)cc1)N1CCN(C(=O)c2ccccc2F)CC1`, the “hERG current change (%, negative = inhibition) at 10uM” value is recorded as -44.8%.
In the case of `Cn1nc(C(F)(F)F)c2cc(NC(=O)OCc3ccc(F)cc3)sc21` it was 1.74%.
`O=C(CCN1C(=O)c2ccccc2C1=O)Nc1ccc(-c2nc3ccccc3o2)cc1`: the “hERG current change (%, negative = inhibition) at 10uM” value is given as 12%.
In the case of `Cc1ccc(N2C(=O)NC(=O)/C(=C/c3cnc(-c4ccccc4)nc3)C2=O)cc1C` it was 18.1%.
The same measure for `COc1ccccc1CCC(=O)Nc1ccc(OC)c(S(=O)(=O)N2CCCCC2)c1`: -28.5%; for `Cc1nn(-c2ccccc2)c(Cl)c1C(=O)N1CCN(C)CC1`: 18.8%.
In the case of `Cc1nc2c(sc(=S)n2Cc2ccco2)c(=O)n1CC(=O)Nc1ccc(F)cc1`, the “hERG current change (%, negative = inhibition) at 10uM” value is listed as 7.01%.
In the case of `C[C@@H]([C@@H](O)c1ccccc1)N(C)C(=O)C(N)Cc1ccccc1` (stereo partly shown), the “hERG current change (%, negative = inhibition) at 10uM” value is given as 4.16%.
The same measure for `CCN1CCN(C(=O)COCc2cc(-c3ccc4c(c3)OCO4)on2)CC1`: -4.57%; for `Cn1ncc(Cl)c1C(=O)Nc1cc(C(F)(F)F)ccc1F`: 29.5%; for `COc1ccc(/C=N/NC(=O)c2c(C)n(C)c3ccc(OC)cc23)c(OC)c1`: -14.3%.
For `O=C(Nc1ccon1)c1ccc2c(c1)OCO2`, the “hERG current change (%, negative = inhibition) at 10uM” value is 8.3%.
The same measure for `COc1ccccc1CNC(=O)[C@H](C)NC(=O)C1CCN(C(=O)[C@@H](N)C(C)C)CC1`: 7.21%.
Consider `N#Cc1ccccc1S(=O)(=O)N1CCN(C(=O)CN2CCCSc3ccccc32)CC1`, for which the “hERG current change (%, negative = inhibition) at 10uM” value is recorded as -38.7%.
Regarding `Cc1nc([N+](=O)[O-])c(NCCO)n1Cc1ccccc1`, the “hERG current change (%, negative = inhibition) at 10uM” value is 8.23%.
The same measure for `COC(=O)c1cn(NC(=O)c2ccc(OC)c([N+](=O)[O-])c2)c(=O)c2ccccc12`: 8.34%; for `Cc1ccccc1S(=O)(=O)c1c(C)cc(C)n(C)c1=O`: 7.04%; for `O=C(NC(C(=O)c1ccccc1)N1CCOCC1)c1cccs1` (stereo not shown): -21.1%.
Turning to `COc1cc(CN2CCCCCC2)cc(OC)c1O`, the “hERG current change (%, negative = inhibition) at 10uM” value was determined as 8.88%.
In the case of `CSc1ccccc1C(=O)Nc1cc2c(cc1C(=O)O)OCCCO2` it was 18.2%; in that of `O=C(COC(=O)CCC1CCCC1)Nc1ccc(F)cc1`, 19%; in that of `NS(=O)(=O)c1ccc(CCNC(=O)c2ccc3nc4ccc(Cl)cc4c(=O)n3c2)cc1`, 10.4%.
In the case of `CN(C)S(=O)(=O)c1ccc(C(=O)NCCSc2ccc(Br)cc2)cc1` it was -32.3%.
For the compound `CC(C)C[C@H]1CN=C(Nc2ccccc2)N1CCC1CCCCC1`, the “hERG current change (%, negative = inhibition) at 10uM” value was -61.5%.
In the case of `COc1nc(-c2ccc(Cl)cc2Cl)nc2ccccc12` it was 6.59%; in that of `COc1ccc(CN2CCN(Cc3ccco3)CC2)c(OC)c1.O=C(O)C(=O)O`, -46.4%; in that of `CCN1C(=O)c2ccccc2S(=O)(=O)c2ccc(C(=O)N3CCOCC3)cc21`, 5.98%.
The same measure for `CCN1CCN(CC(=O)N2N=C(c3cccs3)CC2c2ccc(OC)c(OC)c2)C(=O)C1=O` (stereo not shown): 7.51%.
For the compound `Cc1c(C(=O)Nc2ccc(OCc3ccccc3)cc2)cccc1[N+](=O)[O-]`, the “hERG current change (%, negative = inhibition) at 10uM” value is listed as -0.125%.
With `C/C(=N\NC(=O)c1cc(C)nc2ccccc12)c1ccccn1`, the “hERG current change (%, negative = inhibition) at 10uM” value amounted to 1.58%.
The same measure for `Cc1n[nH]c(=O)c2c(NC(=O)CSc3nc4ccccc4c(=O)n3C(C)C)oc(C)c12`: -27%.
The same measure for `CC(Oc1cc2oc(=O)c3c(c2cc1Cl)CCCC3)C(=O)NCCN1CCOCC1` (stereo not shown): 2.86%.
For the compound `CC(C)(C)NC(=O)C(=O)N/N=C/c1cccs1`, the “hERG current change (%, negative = inhibition) at 10uM” value is -22.1%.
The same measure for `COC(=O)C1=C(Nc2ccc(OC)cc2)C=C(C)C(C(=O)OC)C1c1ccc(C)cc1` (stereo not shown): 18.9%; for `Cc1oc(C(C)(C)C)cc1C(=O)Nc1ccc(N2CCOCC2)cc1`: 5.05%.
In the case of `COC(=O)c1ccc2c(=O)[nH]c(COC(=O)c3c(-c4ccccc4Cl)noc3C)nc2c1` it was -5.72%.
The same measure for `Cc1noc(C)c1S(=O)(=O)Nc1c(C)n(C)n(-c2ccccc2)c1=O`: 24.7%; for `CCOC(=O)c1c(C)nc(C)c(C(=O)OCC)c1-c1ccccc1`: -6.13%; for `Cc1ccc(S(C)(=O)=O)cc1S(=O)(=O)Nc1ccccc1`: 4.45%.
For `CCC1CCCCN1C(=O)CSc1nnc(-c2ccc(OC)cc2)o1` (stereo not shown), the “hERG current change (%, negative = inhibition) at 10uM” value is on record as -19.2%.
With `CCC(C)NCCOCCOc1ccc(Cl)c(C)c1C.O=C(O)C(=O)O` (stereo not shown), the “hERG current change (%, negative = inhibition) at 10uM” value was -31.7%.
The same measure for `COC(=O)c1ccc(S(=O)(=O)NCc2ccccn2)n1C`: 16.8%; for `CCCC(C(=O)NC(C)(C)C)N(CC1CCCO1)C(=O)CNS(=O)(=O)c1ccc(F)cc1` (stereo not shown): 10.2%.
The same measure for `CCOC(=O)C1=C(C)N(CCCC(=O)NCc2ccc3c(c2)OCO3)C(=O)NC1c1ccc(Br)cc1` (stereo not shown): 16.4%; for `COc1ccc(/C(C)=N/NC(=O)c2nnn(-c3nonc3N)c2-c2ccccc2)cc1`: 19.8%; for `O=C(CNC(=O)c1ccncc1)N/N=C/c1ccc(Br)cc1`: -22.7%.
The same measure for `Cn1cccc1Cc1nnc(SCC(=O)Nc2nccs2)n1C`: 13.3%; for `CC(C)(C)c1ccc(S(=O)(=O)Nc2ccccn2)cc1`: 21%; for `Cc1cccc(N2CCN(C(=O)Cn3cccc3)CC2)c1C`: 2.77%.
As to `COC(=O)c1cccc(S(=O)(=O)N2CCC(c3nc4ccccc4o3)CC2)c1`, the “hERG current change (%, negative = inhibition) at 10uM” value is listed as -1.94%.
The same measure for `O=C(c1ccc2nccnc2c1)N1CCN(c2cccc(C(F)(F)F)c2)CC1`: -40%; for `O=C(NCc1ccco1)C(=O)NCC1OCCCN1S(=O)(=O)c1ccc(F)cc1` (stereo not shown): 0.0912%; for `CC(C)Cc1nc(SCC(=O)N2CCCCC2)c2c(=O)n(C)c(=O)n(C)c2n1`: -43.1%.
Turning to `COc1c(S(=O)(=O)N2CCN(c3ccc(F)cc3)CC2)ccc(Cl)c1Cl`, the “hERG current change (%, negative = inhibition) at 10uM” value amounted to 15.2%.
In the case of `Cc1nn(C(C)(C)C)c(C)c1/C=N/OC(=O)Nc1ccc(Cl)cc1` it was -27%; in that of `Cc1nn(C)cc1CNC(=O)CCC(=O)O`, 16.9%.
The same measure for `CCOC(=O)C1=C(CN2CCN(C(=O)c3ccco3)CC2)NC(=O)NC1c1ccc(OC)cc1` (stereo not shown): -64.9%.
The same measure for `O=C1NC(=O)C2(COC(c3ccccc3Cl)OC2)S1` (stereo not shown): 21.6%.
For `CCCCC(=O)Nc1ccnc(-c2cccnc2)n1`, the “hERG current change (%, negative = inhibition) at 10uM” value is -23.9%.
Regarding `Cc1cc(C(=O)Nc2nc(C)c(C(=O)N(C)C)s2)ccc1[N+](=O)[O-]`, the “hERG current change (%, negative = inhibition) at 10uM” value is on record as 4.84%.
Consider `COC(=O)c1cccc(NC(=O)CC2C(=O)NCCN2C(=O)Nc2ccccc2)c1` (stereo not shown), for which the “hERG current change (%, negative = inhibition) at 10uM” value was determined as 19.2%.
In the case of `Cl.c1cnc(N2CCNCC2)nc1` it was 11.9%; in that of `COc1ccc(C(=O)NNC(=O)c2snnc2C)cc1`, 14.1%.
The same measure for `COc1cccc(C(=O)Nc2ccc3nc(N4CCOCC4)cc(C)c3c2)c1`: -55%; for `COc1cccc(/C=N/NC(=S)Nc2cccc(C(=O)O)c2)c1O`: 22.6%.
Turning to `COc1cc(OC)cc(C(=O)NNC(=O)CN2C(=O)NC3(CCCC3)C2=O)c1`, the “hERG current change (%, negative = inhibition) at 10uM” value was -1.64%.
The same measure for `Cc1ccc(SCC(=O)Nc2c(Br)cnn2C)cc1`: 13.6%.
The same measure for `Cc1ccc(-c2csc3ncnc(NCCC(=O)O)c23)cc1C.Cl`: 2.42%.
For `O=C(Nc1ccccc1NC(=O)c1ccccc1Cl)c1ccccc1Cl`, the “hERG current change (%, negative = inhibition) at 10uM” value is given as 17.5%.
The same measure for `CCn1ncc(CNC(=O)C2(C)CC2(Cl)Cl)c1C` (stereo not shown): 13.4%.
Turning to `COc1ccc(Cl)cc1Nc1cc(C)nc2nc(C)nn12`, the “hERG current change (%, negative = inhibition) at 10uM” value was -13.6%.
In the case of `O=C(CCCN1C(=O)/C(=C\c2ccccc2)SC1=S)Nc1ccc(C(=O)O)cc1` it was 12.4%; in that of `COc1ccc2cc(CN(CC3CCCO3)C(=S)Nc3ccccc3)c(=O)[nH]c2c1` (stereo not shown), -33.9%.
The same measure for `Cc1cc(C)cc(NC(=S)N(CCN2CCCCC2)Cc2ccco2)c1`: -74.4%.

Values taken from paper PMC4336329 (PLoS ONE, 2015).
